In all, about 33,000 sequences were measured (“E-score (-0.5 to 0.5)”: median about -0.041, highest 2% from about 0.37 on). This is one part of the list.
Target: T1, Ecm22 (UniProt Q05958)
T1 sequence: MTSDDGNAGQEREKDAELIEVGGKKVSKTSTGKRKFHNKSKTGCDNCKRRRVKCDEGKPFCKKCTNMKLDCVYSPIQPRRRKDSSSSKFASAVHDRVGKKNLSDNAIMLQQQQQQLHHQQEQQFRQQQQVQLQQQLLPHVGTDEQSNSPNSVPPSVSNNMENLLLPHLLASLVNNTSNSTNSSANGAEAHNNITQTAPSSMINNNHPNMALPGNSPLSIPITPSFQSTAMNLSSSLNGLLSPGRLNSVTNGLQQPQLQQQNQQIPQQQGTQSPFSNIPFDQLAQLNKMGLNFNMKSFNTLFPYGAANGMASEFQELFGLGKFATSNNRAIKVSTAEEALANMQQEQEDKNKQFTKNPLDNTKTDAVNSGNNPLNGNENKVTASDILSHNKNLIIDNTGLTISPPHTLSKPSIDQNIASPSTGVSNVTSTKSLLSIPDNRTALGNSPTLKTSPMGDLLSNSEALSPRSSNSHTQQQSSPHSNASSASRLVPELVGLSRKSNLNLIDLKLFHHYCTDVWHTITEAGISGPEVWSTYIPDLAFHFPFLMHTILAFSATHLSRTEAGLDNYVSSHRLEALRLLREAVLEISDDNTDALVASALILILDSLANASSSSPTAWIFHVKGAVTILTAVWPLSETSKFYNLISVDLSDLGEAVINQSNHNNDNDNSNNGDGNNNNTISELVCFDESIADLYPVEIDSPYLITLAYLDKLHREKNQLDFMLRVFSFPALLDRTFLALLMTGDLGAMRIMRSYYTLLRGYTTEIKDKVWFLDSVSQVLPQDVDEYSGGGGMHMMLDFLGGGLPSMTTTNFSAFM
Assay: PBM E-score (8-mer binding enrichment) (E-score (-0.5 to 0.5)); higher = stronger / more preferred TF binding; most listed sequences are background and not binding sites
Conditions: protein concentration: 200 nM; construct: GST-full length
Procedure, shortened: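 The E-score, a modified Wilcoxon-Mann-Whitney statistic, was computed by the Universal PBM Analysis Suite for every ungapped eight-base word pooled with its reverse complement. Scans behind it were normalised with masliner after bound GST-tagged yeast transcription factors were detected with fluorescent anti-GST. The proteins, at about 100-200 nM, had been applied to universal all-10-mer Agilent arrays made double-stranded by primer extension.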

Sequence | PBM E-score
TCAGCAAA | 0.0003
ATTTCCTA | 0.0839
AAGTTTCT | -0.162
ATCCGTCA | -0.099
ACGGGCGG | -0.105
GAGAGCGC | -0.0803
CGCGACCG | 0.239
ACGCCTAT | -0.199
TCGACTCA | -0.0622
CAAGCCGG | -0.191
AAGCTTTC | 0.014
CTAGCAGC | -0.208
CACTGTTC | -0.209
TAAGTTCA | -0.0208
GCGAACGC | 0.138
CAGCTTGC | -0.144
GCAGTCTA | -0.131
AGTTCGGG | 0.0511
GCATCGTA | 0.426
ATCTGCAG | 0.0311
CGCAGTAA | 0.0437
GAAATTAC | -0.00336
GCAGCTAA | -0.0743
GGTTAGTA | 0.116
AAAAGTAC | 0.108

Sequence | PBM E-score
CCAGATTA | -0.112
ATGTTACA | -0.0708
ACCCCTTG | -0.206
ACTAGTTC | -0.0905
ATATACAG | 0.113
AAAGGAAG | -0.135
GCCTGATA | -0.146
CTCGCGAA | 0.326
GTACCTCA | 0.12
CTAGGCAC | -0.255
CAAATTTC | -0.0201
TACGATAA | 0.408
AACTCGCT | 0.307
AGCTCGCA | 0.239
GACCACTC | 0.0777
ACATACCG | 0.0445
AGCATCAT | -0.11
TCGCCCGA | -0.102
CGGATAGC | 0.102
CCGTCAAA | -0.0196
GATTTGAA | -0.0728
GAGAGCCC | -0.0765
ACAGTCTG | -0.0108
GAGCCAGA | -0.133
CTGACTGC | -0.259

Sequence | PBM E-score
GTGGAGGA | -0.0767
GACACGCC | 0.099
GGAAATTA | -0.0713
AGCTGGTA | -0.114
CTCAGTCA | -0.255
ACATCGAT | 0.0238
ATTAGAGC | 0.113
TACTCAGA | -0.0717
ACTAAGGA | 0.1
CCACTTTC | -0.0677
AATCACCA | 0.0614
AACTAAAT | -0.115
ACAGGCCC | -0.38
TACCAAAA | -0.143
CATTCTTC | -0.029
GTAACGAC | 0.289
CACTAGCA | -0.103
ATGGGCTG | -0.233
AGATACGA | 0.47
CAGGGACG | -0.229
CGAATGGC | 0.0911
TCGGCCAA | -0.148
GGCCACGA | -0.164
CCCACTGC | -0.146
CAGCCCAA | -0.136

Sequence | PBM E-score
TCGTGCCA | 0.0819
TAGCTCCA | -0.145
AGTGGCGG | -0.141
CGAACCGA | 0.327
AGATTATG | 0.0821
AATTAGCC | -0.0824
AGCGTGGG | -0.0957
CACATGCG | 0.0542
CCATCCCC | -0.273
ACATCATA | -0.0357
AGAAAAAC | -0.0842
TCGTCACA | 0.029
CTCTTAGA | -0.173
CCGGTCCC | -0.0746
ATTACGAG | 0.38
CAATGGAA | -0.0891
ATAAATAA | 0.248
GTGAGCCA | -0.175
CCTCTTCA | -0.189
ATAAGTAA | -0.0591
CGGGATCC | 0.127
CTTTACTA | -0.106
CCGTGAAA | -0.0316
GCCCCTGA | -0.107
AACTTGCA | -0.0318

Sequence | PBM E-score
ACGGTTTG | 0.198
CTCGGCCA | -0.103
ATACAGCG | -0.0852
CTTATAAC | 0.0729
GCTCAGTA | 0.0954
ACGAGTAA | 0.396
AAAGTTTG | -0.161
CTACCCAC | -0.12
CTGCGAGA | -0.0526
ACCTACTG | -0.134
ACTGCTGG | -0.247
CGTGCACC | -0.0463
GATCACCC | 0.0381
ACAATTCA | -0.0669
TCCTGTAA | -0.0782
ACACCTGC | -0.184
ATGTATTC | -0.0935
CCCGGGCG | -0.197
ACGTACTG | 0.0651
CACGTAGG | -0.156
CGGAATTC | 0.0717
ACCGTGCC | -0.182
CTTATTAC | 0.0266
AGCGAGAA | 0.246
ACGTATCG | 0.192

Sequence | PBM E-score
CGCAGTGC | -0.127
TCAACAGA | -0.0821
ACGTGCTC | -0.0831
CAGAAGCA | -0.0994
ATACTAAC | 0.0809
ACGGCTCA | 0.0407
ATATAGAG | -0.131
CAGAATCG | 0.17
ACCTCCTA | -0.181
AGTTGGAT | -0.0454
CGACATAC | 0.216
AGTTACAC | 0.0121
GCAGGATA | -0.19
GACGGCAC | -0.0593
GTAAAGTA | 0.147
AACCAGAG | -0.082
CAAGTGTC | -0.133
GCACGACC | -0.219
CCAATGTA | -0.123
AAGCGGGT | 0.0621
ATTCCCTC | -0.146
GAACAGAA | -0.142
CCTTAAGA | -0.114
CGCAGGTA | 0.161
AGCCGGAC | 0.175

Sequence | PBM E-score
CGCCCCCC | -0.269
GGGGAGAA | -0.027
CGTTACTC | 0.111
CCGGTTAA | 0.132
TATCATGA | 0.0463
GACCCGAC | 0.136
CCAAACGG | 0.287
ACCTTATA | -0.14
ACCTAGAA | -0.183
AATTGGCC | -0.154
ATTTATAC | 0.401
GCCTTCCA | -0.298
CAAATTGG | -0.0354
AAATGGGA | -0.226
AGACGGCC | -0.223
GCGAAAAA | 0.125
CACTTTGG | -0.0484
TCGATAAA | 0.138
CATCTAAG | -0.146
AGACCTAC | -0.0432
GCCTTCAC | -0.115
AGGGGTTA | -0.237
GGCTTGAA | -0.248
CCAACCCG | 0.0982
TAATCGAA | 0.134

Sequence | PBM E-score
CCTAGCTC | -0.116
AACATGCA | -0.0597
AGACCCTG | -0.229
GGTTTTAA | 0.0221
CCACTGCA | -0.32
CAAGATGG | -0.194
GTGCTTTA | 0.0162
CACACATG | -0.168
CCTTTGCC | -0.276
AATTCGTA | 0.441
GAGAGCGA | 0.306
GGTGTGAA | -0.108
CGTTGCAG | 0.0991
CCTAATAG | -0.169
ACATTAGA | 0.00657
ACACCGTG | -0.08
AATGGCGA | -0.0708
CCGGTTGC | 0.0911
CGAGACCG | 0.228
GGCAATAC | 0.0369
GCCTTCGA | -0.0479
AAAAGATA | 0.00952
CCATCCCG | -0.189
CTTATCCA | -0.189
ACCATGGC | 0.0147

Sequence | PBM E-score
TATCTCAA | 0.0752
AACCGATA | 0.312
AACTCCTG | -0.151
GATTTGCA | -0.0667
CTTCATAC | -0.00642
ATCAACAC | 0.0216
ACATCTAG | -0.0359
TCTAGACA | -0.134
CTGAAAGA | -0.141
CCGTGCGA | 0.176
AGTGGAAA | -0.189
AAGCAGAC | -0.125
ACGTAAGA | 0.105
TAATTCAA | 0.165
GACTCGAA | -0.121
ATCGGGCC | -0.118
CTGTCGCC | -0.197
GCGAGTCC | -0.0135
CGCCTGGA | -0.216
GAGCTCTA | -0.226
CTTGAGCC | -0.271
AATCAACA | 0.0785
ATAGGCAT | -0.0281

Reference: the supplement of paper PMC3334620
